This is one part of the list.
B1: PhoQ; a variant is named by its letters at X, in order, P23837 (parent)
chain: MKKLLRLFFPLSLRVRFLLATAAVVLVLSLAYGMVALIGYSVSFDKTTFRLLRGESNLFYTLAKWENNKLHVELPENIDKQSPTMTLIYDENGQLLWAQRDVPWLMKMIQPDWLKSNGFHEIEADVNDTSLLLSGDHSIQQQLQEVREDDDDAEMTHSVAVNVYPATSRMPKLTIVVVDTIPVELKSSYMVWSWFIYVLSANLLLVIPLLWVAAWWSLRPIEALAKEVRELEEHNRELLNPATTRELTSLVRNLNRLLKSERERYDKYRTTLTDLTHSLKTPLXXLQXXLRSLRSEKMSVSDAEPVMLEQISRISQQIGYYLHRASMRGGTLLSRELHPVAPLLDNLTSALNKVYQRKGVNISLDISPEISFVGEQNDFVEVMGNVLDNACKYCLEFVEISARQTDEHLYIVVEDDGPGIPLSKREVIFDRGQRVDTLRPGQGVGLAVAREITEQYEGKIVAGESMLGGARMEVIFGRQHSAPKDE

Variants of: B1
Assay: enrichment ratio after two sorts for PhoP signalling (ratio (wild type AVST 3.29)); higher = more functional
Conditions: with PhoP (E. coli)
In the case of MEVK, the enrichment ratio is reported as at most 0.25.
For NDHW, the enrichment ratio was at most 0.25.
Variant PNNG has an enrichment ratio of at most 0.25.
AGFD gave an enrichment ratio of at most 0.25.
For NVPY, the enrichment ratio was at most 0.25.
For RHDS, the enrichment ratio was at most 0.25.
GDQT showed an enrichment ratio of at most 0.25.
Variant FAKL has an enrichment ratio of 0.467.
PYTM was tested, and the enrichment ratio was at most 0.25.
In the case of GANF, the enrichment ratio is reported as at most 0.25.
Work on ATSR yielded an enrichment ratio of 0.713.
VEVM was tested, and the enrichment ratio was at most 0.25.
For NCLE, the enrichment ratio was at most 0.25.
For EEQR, the enrichment ratio was at most 0.25.
LHHI gave an enrichment ratio of at most 0.25.
With FQYM the enrichment ratio was at most 0.25.
Work on LFHQ yielded an enrichment ratio of at most 0.25.
WRAQ gave an enrichment ratio of at most 0.25.
SYNT showed an enrichment ratio of at most 0.25.
Work on YMKC yielded an enrichment ratio of at most 0.25.
KNWA was tested, and the enrichment ratio was at most 0.25.
VPNC was tested, and the enrichment ratio was at most 0.25.
For AHSA, the enrichment ratio was at most 0.25.
For VKCS, the enrichment ratio was at most 0.25.
For ALEW, the enrichment ratio was at most 0.25.
Work on CLSS yielded an enrichment ratio of 1.71.
In the case of QYIV, the enrichment ratio is reported as at most 0.25.
With FRPQ the enrichment ratio was at most 0.25.
With PDTL the enrichment ratio was at most 0.25.
With HMWR the enrichment ratio was at most 0.25.
In the case of GFWP, the enrichment ratio is reported as at most 0.25.
With QDAC the enrichment ratio was at most 0.25.
VVIW gave an enrichment ratio of at most 0.25.
Variant NHTN has an enrichment ratio of at most 0.25.
YDYE was tested, and the enrichment ratio was at most 0.25.
YPHA showed an enrichment ratio of at most 0.25.
GWNP was tested, and the enrichment ratio was at most 0.25.
Variant LVVP has an enrichment ratio of at most 0.25.
VYRV gave an enrichment ratio of at most 0.25.
SSFH was tested, and the enrichment ratio was at most 0.25.
Variant RDTA has an enrichment ratio of at most 0.25.
For GMLT, the enrichment ratio was at most 0.25.
MRWH showed an enrichment ratio of at most 0.25.
For EKYM, the enrichment ratio was at most 0.25.
MTCG gave an enrichment ratio of at most 0.25.
Work on STFR yielded an enrichment ratio of at most 0.25.
For IMQG, the enrichment ratio was at most 0.25.
Variant PHCI has an enrichment ratio of at most 0.25.
Variant FTPG has an enrichment ratio of at most 0.25.
Variant WKVQ has an enrichment ratio of at most 0.25.
For MWYN, the enrichment ratio was at most 0.25.
Work on SGQG yielded an enrichment ratio of 2.54.
Work on QFML yielded an enrichment ratio of at most 0.25.
With PKHA the enrichment ratio was at most 0.25.
NPAA showed an enrichment ratio of at most 0.25.
Variant KVID has an enrichment ratio of at most 0.25.
NPSL was tested, and the enrichment ratio was at most 0.25.
In the case of PLIS, the enrichment ratio is reported as at most 0.25.
With TTYT the enrichment ratio was 2.48.
With CRFP the enrichment ratio was at most 0.25.
Work on SIWL yielded an enrichment ratio of at most 0.25.
Variant DQTF has an enrichment ratio of at most 0.25.
Variant NWVH has an enrichment ratio of at most 0.25.
LQEV showed an enrichment ratio of at most 0.25.
Variant WLTY has an enrichment ratio of at most 0.25.
SSER gave an enrichment ratio of at most 0.25.
GCLE was tested, and the enrichment ratio was at most 0.25.
MYCY was tested, and the enrichment ratio was at most 0.25.
PNSP gave an enrichment ratio of at most 0.25.
With EMHH the enrichment ratio was at most 0.25.
Variant QLKQ has an enrichment ratio of at most 0.25.
TWIQ showed an enrichment ratio of 4.49.
RFIQ showed an enrichment ratio of at most 0.25.
PKQR showed an enrichment ratio of at most 0.25.
SDFD was tested, and the enrichment ratio was at most 0.25.
In the case of ADWR, the enrichment ratio is reported as at most 0.25.
SGEA was tested, and the enrichment ratio was at most 0.25.
For DKIE, the enrichment ratio was at most 0.25.
RMIF gave an enrichment ratio of at most 0.25.
For REIG, the enrichment ratio was at most 0.25.
With KCNW the enrichment ratio was at most 0.25.
In the case of TERS, the enrichment ratio is reported as at most 0.25.
SVQD showed an enrichment ratio of at most 0.25.
KIWP gave an enrichment ratio of at most 0.25.
NAAR showed an enrichment ratio of at most 0.25.
FHDR showed an enrichment ratio of at most 0.25.
Work on KIPR yielded an enrichment ratio of at most 0.25.
For HWFM, the enrichment ratio was at most 0.25.
Work on FCAM yielded an enrichment ratio of at most 0.25.
Work on SWQP yielded an enrichment ratio of at most 0.25.
ACPS gave an enrichment ratio of at most 0.25.
YEQE was tested, and the enrichment ratio was at most 0.25.
In the case of LSVT, the enrichment ratio is reported as at most 0.25.
Work on GQVS yielded an enrichment ratio of 1.28.
FFGD gave an enrichment ratio of at most 0.25.
Variant LPSK has an enrichment ratio of at most 0.25.
With PYFA the enrichment ratio was at most 0.25.
For YTTN, the enrichment ratio was at most 0.25.
With HTCT the enrichment ratio was at most 0.25.
Variant YMNP has an enrichment ratio of at most 0.25.
AQTL showed an enrichment ratio of 3.33.
For IQGN, the enrichment ratio was at most 0.25.
With EYAT the enrichment ratio was at most 0.25.
In the case of MGCK, the enrichment ratio is reported as 3.89.
AILC gave an enrichment ratio of 7.86.
Variant EHDS has an enrichment ratio of at most 0.25.
With FKHK the enrichment ratio was at most 0.25.
RMIG was tested, and the enrichment ratio was 0.897.
SITA was tested, and the enrichment ratio was 20.
VFNP was tested, and the enrichment ratio was 0.444.
Work on ERHG yielded an enrichment ratio of at most 0.25.
Variant MKRC has an enrichment ratio of at most 0.25.
In the case of FSKK, the enrichment ratio is reported as at most 0.25.
VVYR was tested, and the enrichment ratio was at most 0.25.
KFNM was tested, and the enrichment ratio was at most 0.25.
AVAV gave an enrichment ratio of 6.08.
In the case of KCRW, the enrichment ratio is reported as at most 0.25.
YKFM showed an enrichment ratio of at most 0.25.
Work on PESM yielded an enrichment ratio of at most 0.25.
For KWYY, the enrichment ratio was at most 0.25.
Work on FWFT yielded an enrichment ratio of at most 0.25.
With EPVI the enrichment ratio was at most 0.25.
DCVL showed an enrichment ratio of at most 0.25.
Variant KVVS has an enrichment ratio of at most 0.25.
Work on IHNY yielded an enrichment ratio of at most 0.25.
Variant STGD has an enrichment ratio of 0.301.
NGFL was tested, and the enrichment ratio was at most 0.25.
Work on ALFF yielded an enrichment ratio of at most 0.25.
Variant MSNL has an enrichment ratio of at most 0.25.
For HYGQ, the enrichment ratio was at most 0.25.
With GKMD the enrichment ratio was at most 0.25.
In the case of QFEL, the enrichment ratio is reported as at most 0.25.
QETM showed an enrichment ratio of at most 0.25.
SCAY showed an enrichment ratio of 4.94.
LIPY was tested, and the enrichment ratio was at most 0.25.
QSHG showed an enrichment ratio of 0.858.
Variant DWQL has an enrichment ratio of at most 0.25.
KRKD showed an enrichment ratio of at most 0.25.
SESH gave an enrichment ratio of 13.1.
GNRI was tested, and the enrichment ratio was at most 0.25.
For AHHR, the enrichment ratio was at most 0.25.
In the case of SICQ, the enrichment ratio is reported as 27.6.
With ESLS the enrichment ratio was at most 0.25.
Work on GWPS yielded an enrichment ratio of at most 0.25.
For LAPK, the enrichment ratio was at most 0.25.
With VHEG the enrichment ratio was at most 0.25.
In the case of GSGS, the enrichment ratio is reported as at most 0.25.
PNNE was tested, and the enrichment ratio was at most 0.25.
QPHQ showed an enrichment ratio of at most 0.25.
Work on QHGP yielded an enrichment ratio of at most 0.25.
KFHQ showed an enrichment ratio of at most 0.25.
With TKLS the enrichment ratio was 19.9.
For AKMN, the enrichment ratio was 0.317.

From a collection of fitness landscapes (doi:10.1126/science.1257360)
